Laboratory results as given in ChEMBL document CHEMBL4888484, “Replenishing the malaria drug discovery pipeline: Screening and hit evaluation of the MMV Hit Generation Library 1 (HGL1) against asexual blood stage Plasmodium falciparum ,using a nano luciferase reporter read-out” (2022).
The campaign covered roughly 150,000 compounds. About 540 (0.36%) showed an effect of 50% or more. The list shows a part of the results.

Each molecule was assayed on Plasmodium falciparum (assay: Primary screen in NF54 nanoGlo assay, in single point, at 2uM, 72h; a lower Z score goes with more inhibition). Settings: timepoint 72 hour.
Type: functional, Erythrocyte
In the case of `COc1ccc(/C=C/c2nc(-c3ccc(S(=O)(=O)N4CCCC4)cc3)no2)cc1`, the “% Inhibition” value is reported as -5% and the Z score is reported as 0.84.
With `Cc1cn2c(=O)cc(CN3CC[C@](C)(O)[C@@H](O)C3)nc2s1` the “% Inhibition” value was -9% and the Z score was 1.63.
`CCc1nn(C)c(Cl)c1CN1CCc2nocc2C1` was tested, and the “% Inhibition” value was -13% and the Z score was 1.17.
In the case of `O=C(NC[C@H]1COC2(CCOCC2)O1)c1ccc(OCc2cccs2)cc1`, the “% Inhibition” value is reported as -2% and the Z score is reported as 0.29.
In the case of `O=S(=O)(c1ccccc1OC(F)(F)F)N1CC(Oc2cccnc2)C1`, the “% Inhibition” value is reported as -3% and the Z score is reported as 0.36.
With `COc1ccc(CCNC(=O)CN2CCC3(CC2)[C@H](O)C[C@@H]3OC)cc1` the “% Inhibition” value was -10% and the Z score was 1.98.
`O=C1Cc2cc(S(=O)(=O)N3CCNCC3)ccc2N1` was tested, and the “% Inhibition” value was -4% and the Z score was 0.79.
In the case of `COc1cn(CC(=O)NC[C@H]2CCCO2)c(CN2CCCCC2)cc1=O`, the “% Inhibition” value is reported as -1% and the Z score is reported as 0.27.
For `COC(=O)CC[C@H](NC(=O)C1CCCN1c1nc(C)c2ccccc2n1)C(=O)OC` (stereo partly specified), the “% Inhibition” value was -7% and the Z score was 1.31.
In the case of `Cc1cccc(OC[C@@H](O)Cn2c(NC3CCCCC3)nc3c2c(=O)n(C)c(=O)n3C)c1`, the “% Inhibition” value is reported as -2% and the Z score is reported as 0.31.
For `CO[C@@H](CNC(=O)C(C)(C)C)c1cc2ccccc2o1`, the “% Inhibition” value was -15% and the Z score was 1.73.
For `C[C@@H]1CN(CC2OCCO2)C[C@H](C)N1CC1OCCO1`, the “% Inhibition” value was -9% and the Z score was 1.07.
`O=C(c1csc2nc(-c3ccccc3)cn12)N1CCN[C@@H]2CS(=O)(=O)C[C@@H]21` was tested, and the “% Inhibition” value was -9% and the Z score was 1.67.
For `CS(=O)(=O)N1CCOC2CCCCC21` (stereo unspecified), the “% Inhibition” value was -19% and the Z score was 2.35.
For `CC(C)c1cc(Br)n(C[C@H]2COCCO2)n1`, the “% Inhibition” value was 1% and the Z score was -0.23.
For `Cc1ccc(-c2nc(NC(=O)COc3ccccc3C)no2)cc1`, the “% Inhibition” value was -7% and the Z score was 1.24.
For `O=C(Cc1csc(NC(=O)C2CCCC2)n1)NC1CCN(Cc2ccccc2)CC1`, the “% Inhibition” value was -17% and the Z score was 1.96.
In the case of `c1cn(-c2ccc3c(c2)OCO3)c(-c2ccc(-c3cc[nH]n3)o2)n1`, the “% Inhibition” value is reported as -11% and the Z score is reported as 2.15.
`COCCN(CC1(C)CCOCC1)C(=O)[C@H](C)Oc1ccccc1` was tested, and the “% Inhibition” value was 0% and the Z score was -0.01.
For `CC(C)(C)n1nnc(CNC(=O)N[C@H]2CCCc3c(F)cccc32)n1`, the “% Inhibition” value was 6% and the Z score was -1.01.
`Cc1cccc([C@@H](NC(=O)c2cccn2C2CC2)C(=O)O)c1` was tested, and the “% Inhibition” value was 1% and the Z score was -0.16.
With `C[C@H](NC1CCN(c2ncnc3[nH]cnc23)CC1)c1nnc(N)s1` the “% Inhibition” value was -7% and the Z score was 1.37.
In the case of `COCCc1ncc(CN2CCC(CC(=O)N(C)C)CC2)cn1`, the “% Inhibition” value is reported as 5% and the Z score is reported as -0.66.
For `Cc1ccc2occ(CC(=O)N[C@H]3CCC(=O)N[C@@H]3c3ccnn3C(C)C)c2c1`, the “% Inhibition” value was -11% and the Z score was 1.23.
With `C[C@H]1CN(C(=O)c2cc(C3CC3)[nH]n2)CCO1` the “% Inhibition” value was -5% and the Z score was 0.43.
`CCn1cc(CC(=O)Nc2ccc(C)cc2)c2cccnc21` was tested, and the “% Inhibition” value was -22% and the Z score was 2.54.
`COCCN1CCC[C@H](NC(=O)C(=O)Nc2cccc(Cl)c2)C1` was tested, and the “% Inhibition” value was -9% and the Z score was 1.77.
`Cc1cc(=O)n(C)cc1NC(=O)NCc1ccco1` was tested, and the “% Inhibition” value was 1% and the Z score was -0.08.
For `CC(C)c1ccc(C#N)c(NCc2noc(C3CC3)n2)n1`, the “% Inhibition” value was -4% and the Z score was 0.39.
`COc1ccc(CC(=O)N2CCOCC2C2CCCC2O)cc1` (stereo unspecified) was tested, and the “% Inhibition” value was -3% and the Z score was 0.33.
`C[C@H](O)c1cc2n(n1)CCCN(Cc1ccc(OCCN3CCOCC3)cc1)C2` was tested, and the “% Inhibition” value was -3% and the Z score was 0.67.
With `C=CCCC(=O)N1CCC([C@H]2OCC[C@@H]2NC(=O)C(F)(F)F)CC1` the “% Inhibition” value was 9% and the Z score was -1.03.
With `CC(C)=CCC/C(C)=C/CN1CC[C@H](O)[C@@H](O)C1` the “% Inhibition” value was 9% and the Z score was -1.68.
In the case of `COCCN(CC1CC1)C(=O)N[C@@H](C)c1cc(F)cc(F)c1`, the “% Inhibition” value is reported as 2% and the Z score is reported as -0.25.
For `COCc1nc(C)c(C(=O)OCC(C)(C)OCC(C)(C)F)s1`, the “% Inhibition” value was 1% and the Z score was -0.18.
For `Cc1ccc(CNC(=O)C2CCC2)n1C`, the “% Inhibition” value was -2% and the Z score was 0.18.
In the case of `CC(C)OCCCNC(=O)Nc1cccc(Br)c1`, the “% Inhibition” value is reported as 4% and the Z score is reported as -0.69.
`O=C(N[C@H]1C[C@H]2OCC[C@@H]12)c1cc(Cl)ccc1F` was tested, and the “% Inhibition” value was -2% and the Z score was 0.33.
With `COc1cc(-c2c(-c3ccccc3)ncn2Cc2noc(C(C)C)n2)ccc1O` the “% Inhibition” value was -12% and the Z score was 2.1.
With `Cc1cc(C)nc(O[C@H]2CC[C@H](NC(=O)c3ccno3)CC2)n1` the “% Inhibition” value was -11% and the Z score was 1.94.
With `COC(=O)c1cccc(/N=C(/NCCc2c(C)nn(C)c2C)NC(=O)c2cccc(C)c2)c1` the “% Inhibition” value was 2% and the Z score was -0.4.
`O=C(Cn1cnc(-c2nc(-c3ccccc3)cs2)c1)NCc1ccc2c(c1)OCO2` was tested, and the “% Inhibition” value was -2% and the Z score was 0.36.
With `CC(C)c1ccc(Cc2nnc(N3CCOCC3)[nH]c2=O)cc1` the “% Inhibition” value was -10% and the Z score was 1.12.
In the case of `CN(C)S(=O)(=O)N1CCC(c2nc(C(F)(F)F)c[nH]2)CC1`, the “% Inhibition” value is reported as 31% and the Z score is reported as -3.54.
`CN(Cc1ccncc1)C(=O)[C@@H]1CCO[C@H]1c1ccc(Cl)c(F)c1` was tested, and the “% Inhibition” value was -1% and the Z score was 0.11.
With `C=CCn1cnc2c1c(=O)n(C[C@H]1CCCO1)c(=O)n2-c1ccccc1C` the “% Inhibition” value was -9% and the Z score was 1.09.
In the case of `CNc1cc(-c2cccc(C(=O)NCCN3CCCC[C@@H]3CO)c2)nc(N)n1`, the “% Inhibition” value is reported as 9% and the Z score is reported as -1.22.
`COc1cccc(CN2CCNC(=O)[C@@H]2CC(=O)NCCc2cccc(Cl)c2)c1OC` was tested, and the “% Inhibition” value was -20% and the Z score was 1.81.
For `CCCC[C@@H](C(=O)Nc1ccc(Cl)c(OC)c1)N1CCCS1(=O)=O`, the “% Inhibition” value was -34% and the Z score was 3.98.
In the case of `COc1ccc(S(=O)(=O)N2CCCN(C)c3ccccc32)cc1Cl`, the “% Inhibition” value is reported as -16% and the Z score is reported as 1.73.
With `NC(=O)c1ccc(NC(c2ccc(F)cc2F)[C@H]2C[C@@H](O)C2)nc1` (stereo partly specified) the “% Inhibition” value was -14% and the Z score was 1.93.
In the case of `COc1cc(NC(=O)CCN2CCN3CCCC[C@H]3C2)cc(OC)c1`, the “% Inhibition” value is reported as -2% and the Z score is reported as 0.36.
In the case of `COC(=O)C[C@H](c1cccnc1)c1c(Cc2ccc(OC)cc2)[nH][nH]c1=O`, the “% Inhibition” value is reported as -8% and the Z score is reported as 1.04.
In the case of `Cc1ccccc1[C@H]1CN(Cc2ccc(N(C)C)nc2)C[C@@H]1C(=O)O`, the “% Inhibition” value is reported as 3% and the Z score is reported as -0.38.
`OC(CN1CCCC1Cn1cncn1)c1ccc(F)c(F)c1` (stereo unspecified) was tested, and the “% Inhibition” value was 13% and the Z score was -1.48.
`Cc1occc1C(=O)NCc1cccnc1N1CCOCC1` was tested, and the “% Inhibition” value was -3% and the Z score was 0.51.
In the case of `Cn1cc(NC(=O)COc2ccc(Cl)cc2C2CCCCC2)cn1`, the “% Inhibition” value is reported as -3% and the Z score is reported as 0.39.
With `CCn1c(N2CCC(C(=O)NCCCN3CCOCC3)CC2)cc(=O)n(C)c1=O` the “% Inhibition” value was -9% and the Z score was 1.48.
For `COc1cc(NC(=O)N(C)Cc2cnc(C)s2)ccc1Cl`, the “% Inhibition” value was 5% and the Z score was -0.48.
In the case of `CC(C)c1ccc(S(=O)(=O)N2CC(=O)N(C3CCCC3)C3(CCCCC3)C2)cc1`, the “% Inhibition” value is reported as -11% and the Z score is reported as 1.61.
For `CCCNC(=O)c1ccc(N2CCc3[nH]nc(-c4cccc(F)c4)c3C2)nc1`, the “% Inhibition” value was -2% and the Z score was 0.37.
For `O=C1C[C@H](c2nc(-c3ccc(N4CCCC4)cc3)no2)CN1c1ccccc1`, the “% Inhibition” value was -5% and the Z score was 0.67.
`c1ccc(Cn2cc3ccccc3n2)cc1` was tested, and the “% Inhibition” value was -8% and the Z score was 1.12.
In the case of `C=CCN=C(NCCc1cccc(F)c1)NCC1(O)CCOCC1`, the “% Inhibition” value is reported as -2% and the Z score is reported as 0.34.
With `Cc1ccc(Cn2ncc3ccc(C(=O)N[C@@H](C)c4ccc(F)cc4)cc32)cc1` the “% Inhibition” value was -15% and the Z score was 1.36.
For `O=C(Nc1ccccc1C(F)(F)F)C1=C(c2ccccc2)S(=O)(=O)CCO1`, the “% Inhibition” value was 7% and the Z score was -0.88.
`FC(F)(F)[C@@H](c1ccccc1)N1CCN(CC2OCCO2)CC1` was tested, and the “% Inhibition” value was -6% and the Z score was 1.02.
With `CO[C@H]1CCN(c2ccc(C(=O)NCc3ccc(-c4ccnn4C)nc3)cc2)C1` the “% Inhibition” value was 0% and the Z score was -0.02.
For `Cc1ncc2n1CC[C@H](C(=O)N1CCc3c(Cl)cccc3C1)C2`, the “% Inhibition” value was -14% and the Z score was 1.85.
`O=S(=O)(c1ccc(-c2cc(C(F)(F)F)[nH]n2)o1)N1CC[C@H](O)C1` was tested, and the “% Inhibition” value was -9% and the Z score was 1.84.
For `Cc1cc(CN2C3CCC2CC(CC(F)F)C3)oc1C(=O)O` (stereo unspecified), the “% Inhibition” value was 0% and the Z score was -0.01.
For `Clc1ccc(NC2(c3noc(C4CCOCC4)n3)CCC2)cc1`, the “% Inhibition” value was -10% and the Z score was 1.33.
With `CC1CCC(C(N)=O)CN1C(=O)c1cc2ccccc2c(=O)[nH]1` (stereo unspecified) the “% Inhibition” value was -5% and the Z score was 0.68.
With `COc1ccc(C(=O)C[C@@]2(O)C(=O)N(CN3CCOCC3)c3ccccc32)c(OC)c1` the “% Inhibition” value was 9% and the Z score was -1.11.
For `Cc1ccc(NC(=O)c2ccc(Oc3ccc(F)cc3Br)nc2)nc1`, the “% Inhibition” value was 1% and the Z score was -0.27.
For `O=c1[nH]ccc2cc(-c3cc(OC(F)(F)F)ccc3O)ccc12`, the “% Inhibition” value was -1% and the Z score was 0.1.
`CN(c1cccnc1)S(=O)(=O)c1ccc(Br)cc1F` was tested, and the “% Inhibition” value was 4% and the Z score was -0.5.
For `Cc1nc2c(c(N3CCCC3)n1)CCN(C(=O)c1cn3ccsc3n1)C2`, the “% Inhibition” value was -17% and the Z score was 3.52.
`CCN1[C@H](c2ccc(Cl)cc2)[C@H](CNCc2ccccc2)C[C@]1(C)CO` was tested, and the “% Inhibition” value was -12% and the Z score was 1.53.
With `COc1ccc(OC)c([C@@H](O)CNC(=O)NCc2ccco2)c1` the “% Inhibition” value was -6% and the Z score was 0.95.
`C[C@H](NC(=O)c1cc2n(n1)CCO2)C(=O)N1Cc2ccccc2C1` was tested, and the “% Inhibition” value was -11% and the Z score was 1.9.
With `C[C@H](Nc1cnc2c(c1)CN(C(=O)OC(C)(C)C)CC2)c1ncco1` the “% Inhibition” value was 0% and the Z score was 0.06.
In the case of `CN(C)Cc1csc(CN2CCO[C@H](c3cccnc3)C2)c1`, the “% Inhibition” value is reported as -7% and the Z score is reported as 1.35.
